Measurements: the supplement of paper PMC4967469
The IC50 comes from the fitted curve, where viability falls to half of the control; fits outside the tested doses are given as limits. For AUC the same curve is integrated over the 256-fold range of doses and scaled to a fraction; it is 1 without any effect and falls as sensitivity rises.

Compound: FC(F)c1nc2ccccc2n1-c1nc(N2CCOCC2)nc(N2CCOCC2)n1 [ZSTK474]
Experiment: Viability of human cancer cell lines after 72 h of drug (GDSC screen)
Experimental: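 Human cancer cell lines in 384-well plates, medium with 10% serum, drug for 72 h over a 256-fold dose range (nine 2-fold or five 4-fold steps up to the top dose). Adherent lines were fixed and stained with the nucleic acid dye Syto60, suspension lines read with resazurin; signal relative to control wells, capped at 0 and 100%. One two-parameter sigmoid per drug and line, fitted in a mixed model over all curves with the slope shared within a line.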

| Cell Line | AUC | IC50 |
| --- | --- | --- |
| SK-OV-3 (ovary, adherent, top dose 5.12 µM) | 0.652 | 947 nM |
| SK-PN-DW (Ewing sarcoma, adherent, top dose 5.12 µM) | 0.809 | 2790 nM |
| SK-UT-1 (soft tissue, adherent, top dose 5.12 µM) | 0.91 | > 5120 nM |
| SKG-IIIa (cervix, adherent, top dose 5.12 µM) | 0.961 | > 5120 nM |
| SKN (uterus, adherent, top dose 5.12 µM) | 0.742 | 1860 nM |
| SKN-3 (head and neck, adherent, top dose 5.12 µM) | 0.928 | > 5120 nM |
| SLVL (B-cell lymphoma, suspension, top dose 5.12 µM) | 0.603 | 625 nM |
| SN12C (kidney, adherent, top dose 5.12 µM) | 0.931 | > 5120 nM |
| SNB75 (glioma, adherent, top dose 5.12 µM) | 0.877 | > 5120 nM |
| SNG-M (endometrium, adherent, top dose 5.12 µM) | 0.724 | 1360 nM |
| SNU-61 (large intestine, adherent, top dose 5.12 µM) | 0.889 | > 5120 nM |
| SNU-81 (large intestine, adherent, top dose 5.12 µM) | 0.431 | 195 nM |
| SNU-175 (large intestine, suspension, top dose 5.12 µM) | 0.753 | 1620 nM |
| SNU-182 (liver, adherent, top dose 10.24 µM) | 0.478 | 556 nM |
| SNU-387 (liver, adherent, top dose 5.12 µM) | 0.559 | 473 nM |
| SNU-398 (liver, adherent, top dose 5.12 µM) | 0.786 | 2310 nM |
| SNU-407 (large intestine, adherent, top dose 5.12 µM) | 0.71 | 1400 nM |
| SNU-423 (liver, adherent, top dose 5.12 µM) | 0.488 | 295 nM |
| SNU-449 (liver, adherent, top dose 5.12 µM) | 0.731 | 1560 nM |
| SNU-475 (liver, adherent, top dose 5.12 µM) | 0.892 | 4830 nM |

| Cell Line | AUC | IC50 |
| --- | --- | --- |
| SNU-1040 (large intestine, adherent, top dose 5.12 µM) | 0.677 | 1190 nM |
| SNU-C1 (large intestine, suspension, top dose 5.12 µM) | 0.846 | > 5120 nM |
| SNU-C2B (large intestine, adherent, top dose 5.12 µM) | 0.827 | 4540 nM |
| SNU-C5 (large intestine, adherent, top dose 5.12 µM) | 0.864 | > 5120 nM |
| SR (lymphoid neoplasm, suspension, top dose 5.12 µM) | 0.531 | 385 nM |
| ST486 (Burkitt lymphoma, suspension, top dose 5.12 µM) | 0.545 | 419 nM |
| STS-0421 (soft tissue, adherent, top dose 5.12 µM) | 0.744 | 1830 nM |
| SU8686 (pancreas, adherent, top dose 5.12 µM) | 0.928 | > 5120 nM |
| SU-DHL-1 (anaplastic large cell lymphoma, suspension, top dose 5.12 µM) | 0.539 | 397 nM |
| SU-DHL-4 (B-cell lymphoma, suspension, top dose 5.12 µM) | 0.477 | 282 nM |
| SU-DHL-5 (B-cell lymphoma, suspension, top dose 5.12 µM) | 0.209 | 60 nM |
| SU-DHL-6 (B-cell lymphoma, suspension, top dose 5.12 µM) | 0.013 | < 20 nM |
| SU-DHL-8 (B-cell lymphoma, suspension, top dose 5.12 µM) | 0.453 | 240 nM |
| SU-DHL-10 (B-cell lymphoma, suspension, top dose 5.12 µM) | 0.185 | 54.9 nM |
| SU-DHL-16 (B-cell lymphoma, suspension, top dose 5.12 µM) | 0.458 | 253 nM |
| SUIT-2 (pancreas, adherent, top dose 5.12 µM) | 0.677 | 1030 nM |
| SUP-B15 (lymphoblastic leukaemia, suspension, top dose 5.12 µM) | 0.377 | 149 nM |
| SUP-HD1 (Hodgkin lymphoma, suspension, top dose 5.12 µM) | 0.699 | 1130 nM |
| SUP-M2 (anaplastic large cell lymphoma, suspension, top dose 5.12 µM) | 0.444 | 233 nM |
| SUP-T1 (T-cell lymphoblastic leukaemia, suspension, top dose 5.12 µM) | 0.626 | 687 nM |
